Here are results for 46 compounds from PubChem BioAssay AID1508624 (National Center for Advancing Translational Sciences (NCATS), 2021).

Screen size: about 48,000 compounds; about 120 (0.25%) were called active. Another 4% or so got no clear call; they are omitted. Calls come from the whole dose curve; as a rule, active = well fitted activation curve with a large enough effect; inconclusive = small, poorly fitted or top-dose-only effect, or another doubt; inactive = no such curve, though single readings can be large or run the other way. This is one part of the list.

A short description of this assay: Primary qHTS for Identification of Small Molecule Activators of Huntingtin-Antisense Promoter Activity. Note: nearly all actives have a fitted effect of over 55% in size. Particulars: HEK293 HTT-AS promoter firefly luciferase reporter (activity 0% = vehicle and -100% = no light), 24 h; series mostly up to 57.5 µM; activity change, positive = activation: at the top concentration. In outline:
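Quantitative HTS used concentration series of up to 57.5 uM final on HEK293 luciferase reporter cells, 24 h at 37 degrees C. Readout was Dual-Glo firefly luminescence.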
(In general: qHTS replaces the single test concentration by a dilution series.)
As to `C[C@H]1[C@H](NC(=O)C(=NOC(C)(C)C(=O)O)c2csc(N)n2)C(=O)N1S(=O)(=O)O`, the “activity change, positive = activation” value was inactive: -7.63%. `CCOc1ccc(NC(=O)N2CCC(CN3CCC(C)CC3)CC2)cc1`: the “activity change, positive = activation” value was inactive: -14.3%. As to `COc1ccc(-c2cc(C(=O)NCCc3ccc(Cl)cc3)[nH]n2)cc1`, the “activity change, positive = activation” value was inactive: -3.6%. As for `Cc1ccccc1-c1nc2c3c(-c4ccccc4)c(-c4ccccc4)oc3ncn2n1`, the “activity change, positive = activation” value was inactive: -3.05%. Consider `Cc1cccc(N2CCN(C(=O)COCc3cc(-c4ccc5c(c4)OCO5)on3)CC2)c1C`, for which the “activity change, positive = activation” value was inactive: 9.51%. Consider `COC(=O)c1ccccc1NC(=O)COCc1cc(-c2cccs2)on1`, for which the “activity change, positive = activation” value is inactive: -22.8%. In the case of `Cc1ccc(CNc2nc3c(c(=O)n(C)c(=O)n3C)n2Cc2ccc(Cl)cc2)cc1`, the “activity change, positive = activation” value was inactive: 10.5%. For `CCn1c(=O)n(-c2ccc(F)c(Cl)c2)c(=O)c2sc3ccccc3c21`, the “activity change, positive = activation” value is inactive: -8.37%.

Consider `O=C(Nc1ccc(F)c(F)c1)c1cc(S(=O)(=O)N2CCc3ccccc32)ccc1F`, for which the “activity change, positive = activation” value is inactive: -37.7%. With `COc1ccc2c(c1)c(CC(=O)Nc1cccc(F)c1C)c(C)n2C(=O)c1ccc(Cl)cc1`, the “activity change, positive = activation” value was inactive: -10.5%. As to `COc1cccc(-n2ccn(CC(=O)Nc3ccccc3F)c(=O)c2=O)c1`, the “activity change, positive = activation” value is inactive: -9.82%. In the case of `COc1ccc(C2=C(C)C(N3CCC(C(=O)NCc4ccco4)CC3)=NS2(=O)=O)cc1` it was inactive: -11.2%; in that of `Cc1ccc(CNS(=O)(=O)c2cc(C(=O)Nc3ccc(C(C)C)cc3)ccc2F)cc1`, inactive: -20.3%; in that of `Cc1ccc(CNC(=O)CSCc2nc(-c3ccc(Cl)cc3)oc2C)cc1`, inactive: -26.5%. Turning to `CCc1ccccc1NC(=O)Cn1cc(C(=O)c2ccc(Cl)cc2)c(=O)c2ccc(C)nc21`, the “activity change, positive = activation” value was inactive: -9.07%. For the compound `O=C(NC1CCCC1)c1cnn(-c2ccc(F)cc2F)c1C1CCNCC1`, the “activity change, positive = activation” value was inactive: -4.89%. In the case of `Cc1ccc(S(=O)(=O)N2CCN(Cc3ccccc3)CC2)c(C)c1NS(C)(=O)=O` it was inactive: -6.76%; in that of `COc1ccc(Cl)cc1NC(=O)CSc1nc2c([nH]c3ccccc32)c(=O)n1-c1ccccc1`, inactive: -35.4%.

Consider `Cc1cccc(Cn2c(=O)n(CCCCC(=O)NCc3ccc4c(c3)OCO4)c(=O)c3ccccc32)c1`, for which the “activity change, positive = activation” value is inactive: -4.31%. For `O=S(=O)(O)c1cc(I)c(O)c2ncccc12`, the “activity change, positive = activation” value is inactive: -3.38%. As to `CCSc1nnc2c(n1)OC(c1ccc(OC)cc1OC)N(C(C)=O)c1ccccc1-2` (stereo unspecified), the “activity change, positive = activation” value was inactive: -3.28%.

As for `CCC(=O)O[C@]1(C(=O)COC)[C@@H](C)C[C@H]2[C@@H]3CCC4=CC(=O)C=C[C@]4(C)C3(F)[C@@H](O)C[C@@]21C` (stereo partly specified), the “activity change, positive = activation” value is inactive: -9.42%.

In the case of `Cc1ccc(C2=NC(c3ccc(F)cc3)=Nc3ccc(C)cc3N2)cc1`, the “activity change, positive = activation” value was inactive: 2.63%. In the case of `COc1ccccc1OCCCCn1c(C2CC(=O)N(c3ccccc3Cl)C2)nc2ccccc21` (stereo unspecified), the “activity change, positive = activation” value was inactive: -21.2%. As for `CCN(CC)CCNC(=O)CN1C(=O)c2cccnc2Oc2ccc(C)cc21`, the “activity change, positive = activation” value was inactive: -4.95%.

For `COc1ccc(CCNC(=O)Cn2c(=O)n(-c3ccc(OC)c(OC)c3)c(=O)c3ccccc32)cc1OC`, the “activity change, positive = activation” value was inactive: -18.3%. Under `COc1ccccc1OCC1CNC(=O)O1` (stereo unspecified) stands inactive: 3%. In the case of `CN(Cc1ccccc1)Cc1c(O)ccc2c(=O)c(-c3ccccc3)c(C(F)(F)F)oc12` it was inactive: -40.7%. Take `Cc1ccc(NC(=O)CN2c3ccccc3S(=O)(=O)c3ccccc32)cc1F`: the “activity change, positive = activation” value was inactive: -27.6%. Under `CCN(C(=O)c1sc2cc(OC)ccc2c1Cl)c1ccccc1` stands inactive: -32.6%; under `O=C(NCc1ccc(F)cc1)C1CCN(S(=O)(=O)c2ccc3c(c2)CCCN3C(=O)C2CCC2)CC1`, inactive: -32%; under `CN(C)c1ccc(NC(=O)CSc2nc(-c3ccco3)cc(C(F)(F)F)n2)cc1`, inactive: -24.2%.

In the case of `O=C(COc1ccccc1Cl)N(Cc1ccco1)Cc1ccco1`, the “activity change, positive = activation” value was inactive: -11.4%. For the compound `Cc1ccccc1C(=O)Oc1cc(-c2ccc3c(c2)OCO3)cc(=O)c2c(C)oc(C)c12`, the “activity change, positive = activation” value was inactive: -14.4%. `Cc1ccc(Cl)cc1NC(=O)c1cc2c(=O)n3cccc(C)c3nc2n1C`: the “activity change, positive = activation” value was inactive: 1.81%. Under `Cc1ccc(S(=O)(=O)c2cnc(SCC(=O)Nc3ccccc3C(F)(F)F)[nH]c2=O)cc1C` stands inactive: -9.05%; under `O=C(NCc1ccc(F)cc1)c1cnc(N2CCOCC2)c2ccccc12`, inactive: -13.4%.

For the compound `Cc1cc(C)cc(NC(=O)C2CCCN(c3cnccn3)C2)c1` (stereo unspecified), the “activity change, positive = activation” value is inactive: 5.02%. As to `CCOc1cc(CNC(=O)c2ccc3c(c2)nc2n3CCCCC2)ccc1OC`, the “activity change, positive = activation” value was inactive: -23.8%. As for `COc1ccc(-n2c(=O)c3c4c(sc3n(CC(=O)N3CCCCC3C)c2=O)CCC4)c(OC)c1` (stereo unspecified), the “activity change, positive = activation” value is inactive: -10.6%. Take `Cc1ccc(N2CCN(C(=O)c3ccc(Nc4nc5ccccc5n5nnnc45)cc3)CC2)c(C)c1`: the “activity change, positive = activation” value is inactive: 7.59%.

Take `COc1ccccc1N1CCN(S(=O)(=O)c2c(C)sc3ncn(CC(=O)Nc4ccc(C(C)C)cc4)c(=O)c23)CC1`: the “activity change, positive = activation” value is inactive: 8.19%. For `CC1CCN(CCCNC(=O)CN2C(=O)CSc3ccc(S(=O)(=O)N4CCC(C)CC4)cc32)CC1`, the “activity change, positive = activation” value was inactive: -0.269%. For `Cc1ccc2ncc(S(=O)(=O)c3ccccc3)c(N3CCCCC3C)c2c1` (stereo unspecified), the “activity change, positive = activation” value was inactive: -33.4%. `COc1ccc(C2=NC3(CCCCCC3)N(CC(=O)Nc3ccc(C)c(C)c3)C2=O)cc1`: the “activity change, positive = activation” value was inactive: -31.8%.

Take `CCn1c(C)c(C)c2cc(C(=O)NCc3ccc(N(C)C)cc3)ccc21`: the “activity change, positive = activation” value was inactive: -17.5%.
